{"source": "patent US20080311122A1", "about": "“Antagonists of Hmgb1 and/or Rage and Methods of Use Thereof” (Medimmune, LLC, priority 2005, published 2008)", "molecules": {"B1": {"name": "S6: human anti-HMG1 antibody, ATCC PTA-6143; VL/VH aa SEQ ID NO: 9/11 (antibody, listed as Homo sapiens, V domains shown)", "VH": "EVQLLESGGGLVQPGGSLRLSCAASGFTFSWYDMSWVRQAPGKGLEWVSRISPSGGYTMYADSVKGRFTISRDNSKNTLYLQMNSLRAEDTAVYYCARLEVGATSGGTAFDIWGQGTMVTVSS", "VL": "[gap - about 100 residues]"}}, "key": {"[1]": {"molecular_target": "T1, HMGB-1 (Homo sapiens, UniProt P09429)", "T1 sequence (P09429 1-215)": "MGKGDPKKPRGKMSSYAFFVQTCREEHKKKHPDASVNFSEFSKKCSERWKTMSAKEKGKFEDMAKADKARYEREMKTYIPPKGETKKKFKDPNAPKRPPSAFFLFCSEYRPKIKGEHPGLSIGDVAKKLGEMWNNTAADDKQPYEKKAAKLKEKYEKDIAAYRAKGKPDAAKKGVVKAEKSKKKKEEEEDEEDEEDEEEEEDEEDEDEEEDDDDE", "assay": "Antibody HMG1 binding competition via BIAcore analysis", "description": "Antibody HMG1 Binding Competition via BIAcore Analysis: All experiments were performed on a BIAcore 3000 instrument (BIAcore, Inc., Piscataway, N.J.). The HMGB-1 protein was immobilized onto a CM5 sensor using a standard amine coupling chemistry protocol, as described in the BIAcore Handbook (BIAcore, Inc., Piscataway, N.J.). Briefly, the CM5 surface subject to the NHS/EDC activation. After activation a HMGB-1 was injected over the surface at a concentration of 100 nM or 200 nM (in 10 mM NaOAc, pH4) to a surface density of between 1100 and 1200 RU's. Following this, unreacted sites on the sensor chip surface were “capped” with an injection of 1M ethanolamine. For reference purposes, a blank flow cell was also prepared, utilizing this same procedure that was used to immobilize HMGB-1, but without any ligand.\nMAbs G2, G4, G9, S6 and Synagis were prepared at 1 uM and 2 uM. All mAb solutions were prepared in HBS-EP buffer (BIAcore, Inc., Piscataway, N.J.). Each cycle started with a 100 μL injection of the first mAb, injected at 1 μM, followed by a second 100 μL injection of a 1:1 mixture of two, 2× concentration mAbs, such that the final concentration of each component mAb in the mixture is equivalent to the first injection. […]\nOnce the entire set had been collected, the maximum RU responses for each mAb after each injection cycle was recorded. […]"}, "[2]": {"molecular_target": "T2, recombinant HMG1 binding to RAGE-Fc (Homo sapiens, UniProt P09429)", "T2 construct": "made in house; host or cells: E. coli (HMG1)", "T2 sequence (P09429 1-215)": "T1 sequence (P09429 1-215)", "assay": "HMG1 binding to RAGE-Ig by ELISA", "details": "at the concentrations tested", "description": "HMG1 binding to RAGE-Ig by ELISA: 50 μl/well of RAGE-Fc fusion protein at 5 μg/ml in PBS was added to each well of an ELISA plate and incubated overnight at 4° C. The plate was then blocked with 200 μl of 5% milk at 37° C. for 1 hr and washed 3× with PBS/Tween. 50 μl/well of diluted HMGB1 solution. For dose curves, HMGB1 concentrations started at 4 ug/ml in PBS. For antibody blocking the HMGB1 was preincubated in another plate with human anti-HMG1 antibodies or buffer, then transferred to the RAGE-coated plate. The plates were then incubated at room temperature for 2 hours and washed 3×. To detect any HMG1 bound to the immobilized RAGE-Fc a mixture of biotinylated mouse anti-HMG1 mAbs (10D4, 4H11, 3E10 and 5C12) each at 1 ug/ml, total Ab: 4 ug/ml, were added to each well and the plate was incubated for 1 hour at room temperature. The plate was then washed and Strepavidin-HPR was added to each well and incubated 15 min. The plate was then washed 3× and blotted dry. 100 μl of TMB developing agent was added and the plate read at 650 nm. Values were calculated as percent of inhibition with HMG1 alone equal to 0% inhibition. The data in FIG. 9 and summarized in Table 1 represent the average of two separate experiments."}, "[3]": {"molecular_target": "T3, HMG1 (recombinant, native; immobilized, soluble) (Homo sapiens, UniProt P09429)", "T3 construct": "made in house; host or cells: E. coli", "T3 sequence (P09429 1-215)": "T1 sequence (P09429 1-215)", "assay": "Direct and sandwich (capture) ELISA comparing forms of HMG1", "type": "binding", "description": "Direct ELISA (immobilized HMG1): Individual wells of a 96-well immunoplate (EIA/RIA plate, High binding, Costar) were coated with HMGB-1 at 5 μg/ml in PBS at 4° C. overnight. The plate was then blocked with 4% milk powder dissolved in PBS at 37° C. for 1 hour. The blocking solution was removed and replaced with human anti-HMG1 antibodies at various concentrations (see FIG. 4A). The plate was then washed (ELX-405 Plate washer, BIO-TEK) and secondary antibody (anti-human IgG-HRP, PIERCE) was added at a final concentration of 1:125,000 at 37° C. for 1 hour. HRP activity was detected with Sureblue HRP substrate (KPL). Plates were read at 450 nm using a Kinetic Microplate Reader (Molecular Devices).\nSandwich ELISA (soluble HMG1): Immunoplates (EIA/RIA plate, High binding, Costar) were coated with anti human IgG Fc at 10 μg/ml in PBS (pH 7.2) and incubated at 4° C. overnight. The coating reagent was removed and the plates were rinsed briefly with PBS. The plates were then blocked with 4% milk for 1 hour at 37° C. and rinsed with PBS. The anti-HMG1 antibodies were diluted in 4% milk. For serial dilutions, the antibodies were used at a starting concentration of 20 μg/ml. […] HRP activity was detected with Sureblue HRP substrate (KPL). Plates were read at 450 nm using a Kinetic Microplate Reader (Molecular Devices)."}, "[4]": {"test_system": "HMGB1 in untreated or LPS activated HUVEC cells", "assay": "Immunofluorescence of HUVEC", "type": "cell-based, human", "description": "Immunofluorescence: Intracytoplasmic (ic) HMGB1 was quantitated by direct immunofluorescence. HUVEC were harvested by trypsin-EDTA treatment and seeded on a glass coverslip. Once the cells are settled, they were stimulated with 0.2 μg/ml of LPS (Sigma) for 4 hours. The cells were fixed in 2% paraformaldehyde for 15 min and then permeabilized in 0.2% Triton X-100 for 2 min. Fixed and permeabilized cells were incubated with anti-HMGB1 antibodies at 1 μg/ml for 1 hour at room temperature. Cells were then washed to remove excess or nonspecifically bound primary antibody followed by incubation with anti human IgG conjugated with fluorescence (Pierce). The sections were mounted with fluoromount (Southern Associates, Birmingham, Ala.), and the images were processed with a Nikon microscope (Japan) and a SPOT imaging system (Diagnostic Instrument)."}}, "note": "“Also recorded” adds a separate entry of the source."}
{"molecule": "B1", "values": [{"measurement": "binding sites on HMGB1 by BIAcore competition", "setting": "[1]", "result": "bind to either the same site or sites that are highly related perhaps overlapping"}, {"measurement": "block of recombinant HMG1 binding to RAGE", "setting": "[2]", "result": "significant ability to block the binding of HMG1 to RAGE"}, {"measurement": "binding to native nuclear, necrotic (released) and activated HMG1", "setting": "[3]", "result": "doesn't bind well to any native form of HMG1; also recorded: some binding of released HMG1; also recorded: bind with differing affinities to the various forms"}, {"measurement": "immunostaining of HMGB1 in HUVEC", "setting": "[4]", "result": "did not recognize actively secreted HMGB1; also recorded: recognized nuclear HMGB1"}]}
